# Test results: the supplement of paper PMC8728848
# Some of the results follow.
# B1: chitinase 3-like protein 2 (Homo sapiens) (protein)
# chain: YKLVCYFTQWSQDRQEPGKFTPENIDPFLCSHLIYSFASIENNKVIIKDKSEVMLYQTINSLKTKNPKLKILLSIGGYLFGSKGFHPMVDSSTSRLEFINSIILFLRNHNFDGLDVSWIYPDQKENTHFTVLIHELAEAFQKDFTKSTKERLLLTAGVSAGRQMIDNSYQVEKLAKDLDFINLLSFDFHGSWEKPLITGHNSPLSKGWQDRGPSSYYNVEYAVGYWIHKGMPSEKVVMGIPTYGHSFTLASAETTVGAPASGPGAAGPITESSGFLAYYEICQFLKGAKITRLQDQQVPYAVKGNQWVGYDDVKSMETKVQFLKNLNLGGAMIWSIDMDDFTGKSCNQGPYPLVQAVKRSLGSL
# Tests used:
# Assay in all cases: glycan array binding signal (z-score within array); higher = stronger binding
# Settings in all cases: glycan notation: IUPAC condensed, linker removed
# Fuc(a1-2)Gal = target: Fuc(a1-2)Gal
# Summary of the method: (§1)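 The binding signal is a Z-score computed within each array and averaged over linkers. Arrays of the same protein sequence at different concentrations or buffers were also averaged together. Data originate from 3228 arrays in the Consortium for Functional Glycomics database, kept only where the protein sequence was available.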
# Fuc(a1-2)Gal(b1-3)GalNAc = target: Fuc(a1-2)Gal(b1-3)GalNAc
# Summary of the method: as §1
# [1] = target: Fuc(a1-2)Gal(b1-3)GalNAc(b1-3)Gal
# Summary of the method: as §1
# [2] = target: Fuc(a1-2)Gal(b1-3)GalNAc(b1-3)Gal(a1-4)Gal(b1-4)Glc
# Summary of the method: as §1
# [3] = target: Fuc(a1-2)Gal(b1-3)GalNAc(b1-3)Gal(b1-4)Glc
# Summary of the method: as §1
# [4] = target: Fuc(a1-2)Gal(b1-3)GalNAc(b1-4)[Neu5Ac(a2-3)]Gal(b1-4)Glc
# Summary of the method: as §1
# [5] = target: Fuc(a1-2)Gal(b1-3)[Fuc(a1-4)]GlcNAc
# Summary of the method: as §1
# Fuc(a1-2)Gal(b1-4)Glc = target: Fuc(a1-2)Gal(b1-4)Glc
# Summary of the method: as §1
# Fuc(a1-2)Gal(b1-4)GlcNAc = target: Fuc(a1-2)Gal(b1-4)GlcNAc
# Summary of the method: as §1
# [6] = target: Fuc(a1-2)Gal(b1-4)GlcNAc(b1-3)Gal(b1-4)GlcNAc
# Summary of the method: as §1
# [7] = target: Fuc(a1-2)Gal(b1-4)GlcNAc(b1-3)Gal(b1-4)GlcNAc(b1-3)Gal(b1-4)GlcNAc
# Summary of the method: as §1
# [8] = target: Fuc(a1-2)Gal(b1-4)[Fuc(a1-3)]GalNAc(b1-3)Gal(b1-4)[Fuc(a1-3)]GlcNAc
# Summary of the method: as §1
# [9] = target: Fuc(a1-2)Gal(b1-4)[Fuc(a1-3)]GalNAc(b1-3)Gal(b1-4)[Fuc(a1-3)]GlcNAc(b1-3)Gal(b1-4)[Fuc(a1-3)]GalNAc
# Summary of the method: as §1
# [10] = target: Fuc(a1-2)Gal(b1-4)[Fuc(a1-3)]GlcNAc
# Summary of the method: as §1
# Fuc(a1-2)GlcNAc = target: Fuc(a1-2)GlcNAc
# Summary of the method: as §1
# Fuc(a1-2)[Gal(a1-3)]Gal = target: Fuc(a1-2)[Gal(a1-3)]Gal
# Summary of the method: as §1
# [11] = target: Fuc(a1-2)[Gal(a1-3)]Gal(b1-3)GlcNAc
# Summary of the method: as §1
# [12] = target: Fuc(a1-2)[Gal(a1-3)]Gal(b1-4)Glc
# Summary of the method: as §1
# [13] = target: Fuc(a1-2)[Gal(a1-3)]Gal(b1-4)GlcNAc
# Summary of the method: as §1
# [14] = target: Fuc(a1-2)[Gal(a1-3)]Gal(b1-4)[Fuc(a1-3)]GlcNAc
# Summary of the method: as §1
# [15] = target: Fuc(a1-2)[Gal(a1-4)]Gal(b1-4)GalNAc
# Summary of the method: as §1
# [16] = target: Fuc(a1-2)[GalNAc(a1-3)]Gal
# Summary of the method: as §1
# [17] = target: Fuc(a1-2)[GalNAc(a1-3)]Gal(b1-3)GlcNAc
# Summary of the method: as §1
# [18] = target: Fuc(a1-2)[GalNAc(a1-3)]Gal(b1-4)Glc
# Summary of the method: as §1
# [19] = target: Fuc(a1-2)[GalNAc(a1-3)]Gal(b1-4)GlcNAc
# Summary of the method: as §1
# [20] = target: Fuc(a1-2)[GalNAc(a1-3)]Gal(b1-4)[Fuc(a1-3)]GlcNAc
# Summary of the method: as §1
# [21] = target: Fuc(a1-2)[GalNAc(a1-4)]Gal(b1-4)GlcNAc
# Summary of the method: as §1
# Fuc(a1-3)GlcNAc = target: Fuc(a1-3)GlcNAc
# Summary of the method: as §1
# [22] = target: Fuc(a1-3)[Gal(b1-4)]GlcNAc
# Summary of the method: as §1
# [23] = target: Fuc(a1-3)[Gal(b1-4)]GlcNAc(b1-4)Gal(b1-4)[Fuc(a1-3)]GlcNAc
# Summary of the method: as §1
# [24] = target: Fuc(a1-3)[Gal(b1-4)]GlcNAc(b1-4)Gal(b1-4)[Fuc(a1-3)]GlcNAc(b1-4)Gal(b1-4)[Fuc(a1-3)]GlcNAc
# Summary of the method: as §1
# [25] = target: Fuc(a1-3)[Gal3S(b1-4)]GlcNAc
# Summary of the method: as §1
# [26] = target: Fuc(a1-3)[GalNAc(b1-4)]Gal(b1-4)GlcNAc
# Summary of the method: as §1
# Fuc(a1-4)GlcNAc = target: Fuc(a1-4)GlcNAc
# Summary of the method: as §1
# Fuc(b1-3)GlcNAc = target: Fuc(b1-3)GlcNAc
# Summary of the method: as §1
# Gal(a1-2)Gal = target: Gal(a1-2)Gal
# Summary of the method: as §1
# Gal(a1-3)Gal = target: Gal(a1-3)Gal
# Summary of the method: as §1
# Gal(a1-3)Gal(b1-3)Glc = target: Gal(a1-3)Gal(b1-3)Glc
# Summary of the method: as §1
# Gal(a1-3)Gal(b1-3)GlcNAc = target: Gal(a1-3)Gal(b1-3)GlcNAc
# Summary of the method: as §1
# Gal(a1-3)Gal(b1-4)GlcNAc = target: Gal(a1-3)Gal(b1-4)GlcNAc
# Summary of the method: as §1
# [27] = target: Gal(a1-3)Gal(b1-4)[Fuc(a1-3)]GalNAc
# Summary of the method: as §1
# Gal(a1-3)GlcNAc = target: Gal(a1-3)GlcNAc
# Summary of the method: as §1
# [28] = target: Gal(a1-3)[Gal(a1-4)]Gal(b1-4)GlcNAc
# Summary of the method: as §1
# Gal(a1-4)Gal(b1-4)Gal = target: Gal(a1-4)Gal(b1-4)Gal
# Summary of the method: as §1
# Gal(a1-4)Gal(b1-4)GalNAc = target: Gal(a1-4)Gal(b1-4)GalNAc
# Summary of the method: as §1
# Gal(a1-4)GlcNAc = target: Gal(a1-4)GlcNAc
# Summary of the method: as §1
# Gal(a1-6)Glc = target: Gal(a1-6)Glc
# Summary of the method: as §1
# Gal(b1-2)Gal = target: Gal(b1-2)Gal
# Summary of the method: as §1
# Gal(b1-3)Gal = target: Gal(b1-3)Gal
# Summary of the method: as §1
# Gal(b1-3)GalNAc = target: Gal(b1-3)GalNAc
# Summary of the method: as §1
# [29] = target: Gal(b1-3)GalNAc(b1-3)Gal(a1-4)Gal(b1-4)Glc
# Summary of the method: as §1
# [30] = target: Gal(b1-3)GalNAc(b1-3)Gal(b1-4)Glc
# Summary of the method: as §1
# [31] = target: Gal(b1-3)GalNAc(b1-3)Gal(b1-4)GlcNAc
# Summary of the method: as §1
# [32] = target: Gal(b1-3)GalNAc(b1-4)Gal(b1-4)Glc
# Summary of the method: as §1
# [33] = target: Gal(b1-3)GalNAc(b1-4)[Neu5Ac(a2-3)]Gal(b1-4)Glc
# Summary of the method: as §1
# [34] = target: Gal(b1-3)[Fuc(a1-4)]GlcNAc
# Summary of the method: as §1
# [35] = target: Gal(b1-3)[Fuc(a1-4)]GlcNAc(b1-3)Gal(b1-4)GlcNAc
# Summary of the method: as §1
# [36] = target: Gal(b1-3)[Fuc(a1-4)]GlcNAc(b1-3)Gal(b1-4)[Fuc(a1-3)]GlcNAc
# Summary of the method: as §1
# [37] = target: Gal(b1-3)[GlcNAc(b1-6)]GalNAc
# Summary of the method: as §1
# [38] = target: Gal(b1-3)[GlcNAc(b1-6)]GlcNAc
# Summary of the method: as §1
binder,measurement,setting,value
B1,glycan array binding signal (z-score),Fuc(a1-2)Gal,-0.134
same,glycan array binding signal (z-score),Fuc(a1-2)Gal(b1-3)GalNAc,-0.144
same,glycan array binding signal (z-score),[1],-0.164
same,glycan array binding signal (z-score),[2],-0.077
same,glycan array binding signal (z-score),[3],-0.251
same,glycan array binding signal (z-score),[4],-0.149
same,glycan array binding signal (z-score),[5],-0.208
same,glycan array binding signal (z-score),Fuc(a1-2)Gal(b1-4)Glc,-0.212
same,glycan array binding signal (z-score),Fuc(a1-2)Gal(b1-4)GlcNAc,-0.144
same,glycan array binding signal (z-score),[6],-0.221
same,glycan array binding signal (z-score),[7],0.12
same,glycan array binding signal (z-score),[8],-0.22
same,glycan array binding signal (z-score),[9],0.268
same,glycan array binding signal (z-score),[10],-0.169
same,glycan array binding signal (z-score),Fuc(a1-2)GlcNAc,-0.243
same,glycan array binding signal (z-score),Fuc(a1-2)[Gal(a1-3)]Gal,-0.136
same,glycan array binding signal (z-score),[11],-0.222
same,glycan array binding signal (z-score),[12],-0.25
same,glycan array binding signal (z-score),[13],-0.133
same,glycan array binding signal (z-score),[14],-0.231
same,glycan array binding signal (z-score),[15],-0.207
same,glycan array binding signal (z-score),[16],-0.196
same,glycan array binding signal (z-score),[17],-0.162
same,glycan array binding signal (z-score),[18],-0.243
same,glycan array binding signal (z-score),[19],-0.198
same,glycan array binding signal (z-score),[20],-0.03
same,glycan array binding signal (z-score),[21],-0.205
same,glycan array binding signal (z-score),Fuc(a1-3)GlcNAc,-0.246
same,glycan array binding signal (z-score),[22],-0.237
same,glycan array binding signal (z-score),[23],-0.222
same,glycan array binding signal (z-score),[24],-0.202
same,glycan array binding signal (z-score),[25],-0.163
same,glycan array binding signal (z-score),[26],-0.196
same,glycan array binding signal (z-score),Fuc(a1-4)GlcNAc,-0.275
same,glycan array binding signal (z-score),Fuc(b1-3)GlcNAc,-0.028
same,glycan array binding signal (z-score),Gal(a1-2)Gal,-0.224
same,glycan array binding signal (z-score),Gal(a1-3)Gal,-0.265
same,glycan array binding signal (z-score),Gal(a1-3)Gal(b1-3)Glc,-0.178
same,glycan array binding signal (z-score),Gal(a1-3)Gal(b1-3)GlcNAc,-0.171
same,glycan array binding signal (z-score),Gal(a1-3)Gal(b1-4)GlcNAc,-0.124
same,glycan array binding signal (z-score),[27],-0.177
same,glycan array binding signal (z-score),Gal(a1-3)GlcNAc,-0.194
same,glycan array binding signal (z-score),[28],-0.176
same,glycan array binding signal (z-score),Gal(a1-4)Gal(b1-4)Gal,-0.093
same,glycan array binding signal (z-score),Gal(a1-4)Gal(b1-4)GalNAc,-0.091
same,glycan array binding signal (z-score),Gal(a1-4)GlcNAc,-0.21
same,glycan array binding signal (z-score),Gal(a1-6)Glc,-0.259
same,glycan array binding signal (z-score),Gal(b1-2)Gal,-0.205
same,glycan array binding signal (z-score),Gal(b1-3)Gal,-0.244
same,glycan array binding signal (z-score),Gal(b1-3)GalNAc,-0.218
same,glycan array binding signal (z-score),[29],-0.238
same,glycan array binding signal (z-score),[30],-0.269
same,glycan array binding signal (z-score),[31],-0.233
same,glycan array binding signal (z-score),[32],-0.238
same,glycan array binding signal (z-score),[33],-0.151
same,glycan array binding signal (z-score),[34],-0.233
same,glycan array binding signal (z-score),[35],-0.248
same,glycan array binding signal (z-score),[36],-0.163
same,glycan array binding signal (z-score),[37],-0.279
same,glycan array binding signal (z-score),[38],-0.209
